From PubChem BioAssay AID1794842 (National Center for Advancing Translational Sciences (NCATS), 2023)
Screen size: about 2,800 compounds; fewer than 10 were called active. Calls come from the whole dose curve; as a rule, active = well fitted curve in the direction sought with a large enough effect; inconclusive = small, poorly fitted or top-dose-only effect, or another doubt; inactive = no such curve, though single readings can be large or run the other way. Some of the results follow.

target: Metallo-beta-lactamase type 2 (Klebsiella pneumoniae) (UniProt C7C422); experiment: qHTS to identify inhibitors of the New Delhi Metallo-beta-lactamase (NDM): Meropenem screen against the machine-based learning selections.; note: % of control where 0% means no effect; conditions: Purified NDM-1, meropenem hydrolysis, absorbance 300 nm; at 38.4 µM (top of the series) unless noted
In short: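 Hydrolysis by 2 nM NDM-1 was followed by absorbance after >30 min compound preincubation in HEPES pH 7.0 buffer with 1 uM Zn2SO4. For nitrocefin (16.7 uM, 15 min, 485 nm) and meropenem (50 uM, 30 min, 300 nm), each substrate ran on separate plates.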

Chain of UniProt C7C422 (C7C422 whole entry, looked up): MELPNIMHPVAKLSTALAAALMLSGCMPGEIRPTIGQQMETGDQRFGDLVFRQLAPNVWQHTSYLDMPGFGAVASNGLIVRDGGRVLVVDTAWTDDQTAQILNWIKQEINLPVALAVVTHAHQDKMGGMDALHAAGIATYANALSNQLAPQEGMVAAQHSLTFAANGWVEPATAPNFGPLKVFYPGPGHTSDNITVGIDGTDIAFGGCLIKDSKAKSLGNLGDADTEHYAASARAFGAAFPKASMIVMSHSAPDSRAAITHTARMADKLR

Activity change, negative = inhibition, inactive:
O=C(Nc1ccc(F)cc1)N1C[C@@H]2OCC(=O)N(Cc3ccc(OC(F)(F)F)cc3)[C@@H]2C1 -0.897%
COc1ccc(-c2ccc3nnc(CNC(=O)Cc4cccc(F)c4)n3n2)cc1 3.14%
Cc1ccc(S(=O)(=O)N2C[C@@H]3OCC(=O)N(Cc4ccc(F)cc4)[C@@H]3C2)cc1 0.307% [at 57.5 µM]
CCCCCC(=O)N[C@H]1C[C@@H](Cc2cc(CN3CCOCC3)on2)C1(C)C 0.0274% [at 57.5 µM]
c1ccc(CCCc2noc(-c3ccc(NCc4ccccn4)nc3)n2)cc1 62.3%
Cc1noc2c(N3CCOCC3)cc(-c3cccnc3)nc12 5.99% [at 57.5 µM]
Nc1nc(CCC(=O)N2CCn3nc(C(O)c4ccccc4)cc3C2)cs1 (centres undefined) 3.24%
COCCN1C(=O)CO[C@H]2CN(C(=O)c3ccc(F)cc3)C[C@H]21 7.39% [at 57.5 µM]
O=C(C1CC2(CCNCC2)CN1)N1CCC(c2nc3ccccc3[nH]2)CC1 (centres undefined) 35.6%
COc1ccc(NC(=O)Cn2cccc2-c2nc(-c3ccccc3)no2)cc1 4.84%
CC1=C[C@@H](CNC(=O)COc2ccccc2)[C@H](C(C)C)C[C@H]1Cc1nc2ccncc2[nH]1 52.4% [at 57.5 µM]
O=C(NC[C@H]1O[C@@H](CC(=O)N2CCCC2)[C@H](O)[C@@H]1O)c1cccc(F)c1 46.9% [at 57.5 µM]
O=C(NCc1nnc2ccc(-c3ccc(F)cc3)nn12)c1ccoc1 2.03%
Cn1c(CNCC2(COc3cccnc3)C[C@@H](O)[C@@H](O)C2)nc2ccccc21 (some centres undefined) 28.6%
COc1ccc(CCCNC(=O)c2ccc(N3CCC(N(C)C)C3)nc2)cc1 (centres undefined) -2.89%
COc1cccc(CN[C@@H]2CCC[C@@H](C(=O)NCc3cc(C)on3)CC(=O)N(C)C2)c1 1.44% [at 57.5 µM]
CC(=O)NC1(C)CN(Cc2ccc(-c3cccc(C(F)(F)F)c3)nc2)C1 0.162% [at 57.5 µM]
COCCNC(=O)[C@H]1CCC[C@H]1NC(=O)c1ccc(OC)cc1 0.0448%
COCCNC(=O)[C@@H]1CCC[C@@H](NC(=O)NC2(c3ccccc3)CCOCC2)CN(C)C(=O)C1 5.27%
Cn1nc(C2CCN(C(=O)c3cnccn3)CC2)c2c1CCOC2 0.813%
COCCNc1ncc(-c2cccc(O)c2)c2c1OCC2 13.6% [at 76.7 µM]
Oc1ccccc1CN1CCNc2cnc(OCc3cccnc3)cc2C1 10.5% [at 57.5 µM]
O=C(Cc1ccc(F)cc1)N1CCc2nc(C3CC3)nc(-c3ccc(Cl)cc3)c2C1 1.12%
O=C(N[C@H]1CCN2C(=O)c3cc(-c4ccc5c(c4)OCO5)ccc3NC(=O)[C@H]12)C1CCCC1 1.5%
COc1ccc(CNC(=O)CC[C@H]2CNC(=O)[C@@H]3[C@@H](CCN3Cc3ncc[nH]3)N2C)cc1 15.4%
COc1c(F)cc(CNCC2(O)CCCNC2)cc1F (centres undefined) 21.5%
CCN(CC)C(=O)[C@@H]1CCC[C@@H](NC(=O)c2ccc(C#N)cc2)CN(C)C(=O)C1 0.646% [at 57.5 µM]
O=C1CCCCCN1CC(=O)N1CCCC(OCc2ccccc2)C1 (centres undefined) 1.7%
OC(c1ccc2c(c1)CCO2)c1nc(Nc2cccc(C(F)(F)F)c2)n[nH]1 (centres undefined) 1.18% [at 57.5 µM]
Cc1cc(C)n2nc(CC(=O)N[C@H](c3ccccn3)C3CC(O)C3)nc2n1 (some centres undefined) 61.9%
O=C(N[C@H](Cc1ccccn1)C1CC(O)C1)c1n[nH]c2c1CCCC2 (some centres undefined) 34.8%
COc1ccc(N2C(=O)[C@@H]3[C@@H](CCN3C(=O)C(C)(C)C)N(Cc3ccccc3)C2=O)cc1 -0.403% [at 57.5 µM]
COc1ccccc1C(O)c1nc(Nc2ccc(Cl)cc2F)n[nH]1 (centres undefined) 1.38% [at 57.5 µM]
CN1CCC(C2CCN(C(=O)NC3CCCC3)C2)CC1 (centres undefined) -1.47%
CCS(=O)(=O)N1CCC(Cc2nc(-c3cccnc3)n[nH]2)C1 (centres undefined) 0.912%
C=CCC1(CO)CCCN(CCS(=O)(=O)c2ccccc2)C1 (centres undefined) -1.58%
O=C(Cc1ccccc1O)N1CCCC(CCc2c(F)cccc2F)C1 (centres undefined) 1.93%
O=C(COc1ccccc1)NC[C@H]1Cn2c(-c3ccc(Cl)cc3)cnc2CO1 7.23% [at 57.5 µM]
CN(CCCc1cnn(C)c1)C(=O)C1CNCCO1 (centres undefined) 34.3%
CN(C)c1ccc(CN[C@H]2C[C@H]3C(=O)NC[C@@H](CCC(=O)N4CCC(O)CC4)N3C2)cc1 6.56%
COc1ccc(OCc2nc(C(=O)N3CCCC(C(C)(C)O)C3)co2)cc1 (centres undefined) 0.798%
Cn1cc(-c2cnc(NC(=O)c3c[nH]c4ccccc34)c3c2CCO3)cn1 6.8% [at 57.5 µM]
Cc1ccccc1-c1nccn2c(C3CN(Cc4ccccc4O)C3)ncc12 4.1% [at 57.5 µM]
OCC1(CC2CC2)CCCN(c2nccc(C(F)(F)F)n2)C1 (centres undefined) 1.97%
CC(=O)c1sccc1-c1cc(NCc2ccccn2)nc2[nH]ccc12 3.92%
COc1ccc(-c2noc(C(=O)NC3CCC3)c2[C@H](C)O)cc1 0.792% [at 57.5 µM]
CC(C)NC(=O)N[C@H]1CCN2C(=O)c3cc(-c4ccc(F)cc4F)ccc3NC(=O)[C@H]12 -3.79% [at 57.5 µM]
O=C1[C@@H]2[C@@H](CCN2C(=O)NC2CCCCC2)N(Cc2cccs2)C(=O)N1c1cccc(F)c1 -0.596%
O=C1COc2ccc(-c3ccsc3)nc2CN1 17.5% [at 76.7 µM]
Cc1noc([C@@H](C)NC(=O)Cc2ccccc2)c1C(=O)O -2.43% [at 76.7 µM]
C[C@H]1[C@@H]2[C@@H](O)C([C@H](C)C(=O)NCc3ccccn3)CC[C@@]2(C)CC[C@@H]1NC(=O)c1ccc(C#N)cc1 (some centres undefined) 2.59%
COCCNS(=O)(=O)c1cc(C(=O)O)cc(-c2cccc3cccnc23)c1 4.91%
O=C(NC[C@H]1OC[C@@H](NCc2ccccc2O)[C@@H]1O)Nc1ccccc1 1.63% [at 57.5 µM]
O=C1CC2CCCC(C1)N2C(=O)c1cccc(Br)c1 0.993% [at 57.5 µM]
COc1ccc(-c2nc3ccncc3[nH]2)cc1 21.9% [at 76.7 µM]
CN1C[C@@H](NC(=O)c2ccc(C(C)(C)C)cc2)C[C@H]1c1nc(-c2ccc3c(c2)OCO3)no1 1.12%
Cc1ccc2c(c1)nc1n2[C@@H](CNCc2nccn2C)COC1 4.93% [at 57.5 µM]
O=C(N[C@H]1C[C@@H]2C(=O)N[C@H]3CCN(C(=O)c4cccs4)[C@@H]3C(=O)N2C1)C1CCCC1 1.42% [at 57.5 µM]
CCc1cc(C(=O)NCc2cc3n(n2)CCCN(S(C)(=O)=O)C3)cs1 1.85%
CCN(CC)C(=O)C[C@@H]1c2nc(NC(=O)N3CCOCC3)sc2C[C@@H]2[C@](C)(CO)[C@H](O)CC[C@]21C 6.26%
CC(C)(O)CCc1cccc(C(=O)N[C@H]2CCC[C@H]2C(N)=O)c1 -0.412%
COC(=O)[C@H]1CN(C(C)=O)CCN1C(C)=O -0.0382% [at 76.7 µM]
COc1ccc(C(=O)Nc2ccc(-c3noc([C@@H]4CCCN4CCCc4ccccc4)n3)cn2)cc1 12%
O=C(Cc1c[nH]c2ncc(-c3cccc(OC(F)(F)F)c3)cc12)NCc1cccnc1 5.42% [at 57.5 µM]
CN(Cc1cc(-c2ccccc2)n[nH]1)c1cc(C2CC(N)C2)ncn1 (centres undefined) 47.7%
CCNc1ncc(CN2CCC(N)(C(=O)O)C2)cn1 (centres undefined) 34.4%
CCCC(c1cccs1)n1cc(-c2cncnc2)nn1 (centres undefined) -2.5%
COc1c(C)cccc1-c1nc(C2CCOC2)no1 (centres undefined) 2.81%
CC1=C[C@@H](CNC(=O)COCC(=O)O)[C@H](C(C)C)C[C@H]1Cc1nc2ccc(C)cc2[nH]1 41.1% [at 57.5 µM]
COc1ccccc1-n1cc(C(=O)NC[C@@H]2C[C@H](F)CN2)cn1 23.1%
CC1=C[C@@H](CNCCN(C)C)[C@H](C(C)C)C[C@H]1Cc1nnc(C(C)(C)C)o1 -0.442% [at 57.5 µM]
Cn1cccc1C(=O)C(=O)N1CCC(O)(CN2CCOCC2)C(C)(C)C1 (centres undefined) 9.53%
c1cncc(CN2CCC[C@H]2c2nc(-c3ccc(-n4ccnc4)nc3)no2)c1 10.8% [at 57.5 µM]
O=C(Cc1c[nH]c2ncc(-c3ccccc3)cc12)NC1CC1 6.19% [at 76.7 µM]
CC(C)CNC(=O)N1CCC(Nc2cccnc2)C1 (centres undefined) 13.4%
O=C1CCCCC(C(=O)N2CCOCC2)N1 (centres undefined) -0.459%
O=C(N1CCC2(CCCCO2)CC1)C1(c2ccccc2)CC1 0.46%
COCC(=O)N1C[C@@H]2C[C@H]1C(=O)N(Cc1ccccn1)c1ccccc1O2 0.478% [at 57.5 µM]
OC(c1cccc(C(F)(F)F)c1)c1nc(Nc2ccc(F)cc2)n[nH]1 (centres undefined) 1.24% [at 57.5 µM]
